Reference: PubChem BioAssay AID463173 (ICCB-Longwood Screening Facility, Harvard Medical School, 2010)
Out of some 52,000 compounds screened, about 1,700 (3.3%) were called active. Rule as the data show it: active = survival mostly below about 52% (no sharp cut-off); inactive = mostly above about 56%. This is one part of the list.

System: Wild type
Test: growth inhibition of S. aureus wild type versus tarO mutant, primary screen, teichoic acid synthesis inhibitors, RN4220, OD600 (AID 463173)
Settings: S. aureus RN4220 wild type/DeltatarO growth, OD600, 18 h, stronger effect = lower value, screened at 18.75 µg/mL (by protocol)

| Structure (SMILES) | survival |
| --- | --- |
| Cc1ccc(CCNC(=O)c2oc(=O)c3ccccc3c2-c2ccc(C)cc2)cc1 | inactive: 17% |
| CC(C)(C)OC(=O)N1CCC(c2c(C(=O)NCc3ccco3)cnn2-c2ccc(F)cc2F)CC1 | inactive: 70% |
| CCC(=O)Nc1ccc(C)cc1-c1nc2ccccc2n(CC(=O)c2ccc(C)cc2)c1=O | inactive: 85% |
| CCOC(=O)c1c(C)c(C(=O)NCc2ccc(Cl)cc2)c(C)n1C | inactive: 84% |
| COc1ccccc1NC(=O)C1=C(C)Nc2nc(-c3ccco3)nn2C1c1cccc(C)c1 (centres undefined) | inactive: 90% |
| CCc1ccc(-n2c(=O)c3c(C)c(C(=O)N(C)C)sc3n(CC(=O)Nc3cc(Cl)ccc3C)c2=O)cc1 | inactive: 129% |
| CCCCNC(=O)Cn1c(=O)cc(C)c2c(C)nn(-c3cccc(Cl)c3C)c21 | inactive: 83% |
| Cc1noc2ncnc(N3CCCC(C(=O)Nc4cc(F)ccc4F)C3)c12 (centres undefined) | inactive: 81% |
| Cc1cc(-n2c(SCc3ccccc3F)nc3[nH]ncc3c2=O)ccc1Cl | inactive: 78% |
| Cc1ccc(-c2noc(-c3ccc(NC4CCCC4)c([N+](=O)[O-])c3)n2)cc1 | inactive: 114% |
| Cc1cc(Cl)ccc1NC(=O)C1CCCN1S(=O)(=O)c1ccc2c(c1)CCCC(=O)N2 (centres undefined) | inactive: 74% |
| CCc1ccc2c(c1)C1(NN=C(c3ccccc3)S1)C(=O)N2 (centres undefined) | inactive: 15% |
| CCc1c(C)sc2c1CCN(C(=O)Nc1ccccc1Cl)C2c1ccc(OC)cc1 (centres undefined) | inactive: 78% |
| CC(C)(C)OC(=O)N1CCC(c2nnc(SCc3ccccc3Cl)o2)CC1 | active: -2% |
| CS(=O)(=O)c1ncc(N(Cc2ccco2)Cc2cccs2)c(C(=O)Nc2ccccc2F)n1 | inactive: 77% |
| COc1ccc(Cl)cc1NC(=O)C(C)n1c(=O)cc(C(F)(F)F)c2c(C)nn(C)c21 (centres undefined) | inactive: 127% |
| Cc1ccc(Cn2ccn(Cc3ccc(C)cc3)c(=O)c2=O)cc1 | inactive: 102% |
| CC1CCc2onc(C(=O)N3CCN(c4ccc(Cl)cc4)CC3)c2C1 (centres undefined) | inactive: 83% |
| COc1ccc(N2C(=O)NC(NS(=O)(=O)c3ccc(NC(C)=O)cc3)(C(F)(F)F)C2=O)cc1 (centres undefined) | inactive: 78% |
| CCOc1ccc(CNC(=O)CCCn2nc(C)c3c(C)n(-c4ccc(C)cc4)nc3c2=O)cc1 | inactive: 81% |
| CCOC(=O)c1cc2c(=O)n3ccccc3nc2n(CC(C)C)c1=NC(=O)C(C)(C)Oc1ccc(Cl)cc1 | inactive: 64% |
| Cc1ccc(C(=O)N2CC(=O)Nc3ccc(Br)cc3C2c2ccc(F)cc2)cc1C (centres undefined) | inactive: 84% |
| CCc1ccc(NC(=O)Cn2cnc3nc4c(cc3c2=O)CCCC4)cc1 | inactive: 133% |

| Structure (SMILES) | survival |
| --- | --- |
| Cc1ccc(C)c(N2CCN(C(=O)CCc3c(C)nc4c(c3C)c(=O)n(C)c(=O)n4C)CC2)c1 | inactive: 72% |
| CCN1CCN(C(=O)Cn2c(-c3cccs3)cc3cc(Cl)ccc32)CC1 | inactive: 72% |
| COc1ccc(CNC(=O)Cc2c(C)c3c(O)cc(C)cc3oc2=O)cc1 | inactive: 77% |
| COc1ccc(C(CNC(=O)c2oc3ccccc3c2C)N2CCCCC2)cc1 (centres undefined) | inactive: 91% |
| CCc1ccc(-n2c3nc(=O)[nH]c(=O)c-3cc3c(C)nn(-c4ccccc4)c32)cc1 | inactive: 77% |
| COc1ccccc1CNC(=O)C1CCN(c2ncnc3c2nc2n3CCCCC2)CC1 | inactive: 78% |
| CC(C)CCNC(=O)c1c[nH]c2ccc(S(=O)(=O)Nc3cccc(C(F)(F)F)c3)cc2c1=O | inactive: 64% |
| NCc1ccc2[nH]c(=O)[nH]c2c1 | inactive: 104% |
| O=C(NCc1ccccc1)C(c1ccccn1)N(C(=O)c1csnn1)C1CC1 (centres undefined) | inactive: 106% |
| Cc1noc(-c2ccc(N3CCCCC3C)c([N+](=O)[O-])c2)n1 (centres undefined) | inactive: 116% |
| COc1cc(Cl)c(C)cc1NC(=O)c1c(C)oc2nc(C)nc(N3CCCC3)c12 | inactive: 124% |
| O=C1CCCc2cc(S(=O)(=O)N3CCCC(C(=O)NCc4ccccc4Cl)C3)ccc2N1 (centres undefined) | inactive: 69% |
| CCc1nnc(NC(=O)CSc2nccn2Cc2ccccc2)s1 | inactive: 69% |
| O=C(Cn1c(-c2cccs2)cc2ccccc21)NCCCN1CCN(c2cccc(Cl)c2)CC1 | inactive: 80% |
| CC1CCCN(C(=O)Cc2cccc3ccccc23)C1 (centres undefined) | inactive: 113% |
| Cc1ccc(-n2c(=O)c3oc4ccccc4c3n(Cc3ccccc3)c2=O)cc1C | inactive: 78% |
| O=C(/C=C/c1ccc(F)cc1)NC(=S)NCc1ccco1 | inactive: 120% |
| Cc1ccc(-c2noc(-c3nnn(CC(=O)Nc4ccc(C)cc4Cl)c3N)n2)cc1 | inactive: 51% |
| Cc1cc(C)cc(NS(=O)(=O)c2ccc3[nH]cc(C(=O)N4CCCCC4)c(=O)c3c2)c1 | inactive: 78% |
| CCC(=O)N1CCc2cc(CNS(=O)(=O)c3ccccc3F)ccc21 | inactive: 88% |
| CCOC(=O)c1ccc(N2C(=O)CC(N3CCN(c4ccc(O)cc4)CC3)C2=O)cc1 (centres undefined) | inactive: 102% |
| O=C(Nc1ccc(-c2nnn(CC(=O)N3CCN(C(=O)c4ccco4)CC3)n2)cc1)c1ccccc1F | inactive: 98% |
| Cc1ccc(NC(=O)CCc2nc(-c3ccccc3F)no2)c(C)c1 | inactive: 90% |

| Structure (SMILES) | survival |
| --- | --- |
| CN1CCCCc2c1nc1ccccc1c2N | inactive: 112% |
| Nc1nnc(CCS(=O)(=O)c2ccc3ccccc3c2)s1 | inactive: 84% |
| CCOc1cc2c(cc1OCC)C(CC(=O)OC)N(C(=O)Nc1cc(C)cc(C)c1)CC2 (centres undefined) | inactive: 72% |
| COc1cc(C(=O)Nc2sc3c(c2C#N)CCCC3)c(Br)c(OC)c1OC | inactive: 76% |
| CCOc1ccccc1CNC(=O)c1ccc2c(c1)N(CC)CCS2 | inactive: 33% |
| COc1cccc(CNC(=O)C(Cc2ccccc2)NS(=O)(=O)c2ccc3c(c2)CCN3C(C)=O)c1 (centres undefined) | inactive: 75% |
| Cc1ccc(-n2nc(C(=O)NC(C)C)c(=O)n(C)c2=O)cc1 | inactive: 71% |
| Cc1cccc(OCC(=O)Nc2nnc(S(=O)(=O)N3CCCCCC3)s2)c1 | inactive: 51% |
| CS(=O)(=O)c1ncc(Cl)c(C(=O)N(Cc2ccc(Cl)cc2)Cc2ccco2)n1 | inactive: 19% |
| Cc1oc(-c2ccccc2Cl)nc1CS(=O)CC(=O)N1CCN(c2cccc(C(F)(F)F)c2)CC1 (centres undefined) | inactive: 129% |
| O=C(O)C1CCCN1c1ncccn1 (centres undefined) | inactive: 105% |
| Cn1nnnc1SCCCNCc1cc(Br)ccc1OCc1ccccc1 | inactive: 84% |
| Cc1nc2sccn2c(=O)c1S(=O)(=O)Nc1ccc(N2CCN(C)CC2)cc1 | inactive: 93% |
| NC(=O)c1cccc(S(=O)(=O)N2CCOCC2)c1 | inactive: 106% |
| COc1ccc(-c2nn3c(=O)cc(CN4CCN(C(=O)Nc5cc(C)ccc5C)CC4)nc3s2)cc1 | inactive: 125% |
| COc1cc(OC)c(NC(=O)NCCn2nnc3cc(S(=O)(=O)N(C)C)ccc32)cc1Cl | inactive: 63% |
| CCOC(=O)c1c(C)[nH]c(C)c1S(=O)(=O)N1CCC(C(=O)NCc2ccc(F)cc2)CC1 | active: 1% |
| Cc1cc(-c2ccc(S(=O)(=O)Nc3cccc(C)c3C)s2)on1 | inactive: 134% |
| COc1ccc(-c2c(C#N)c(SCC(=O)Nc3ccc(C)c(C)c3)nc(C)c2C(=O)Nc2ccc(Cl)cc2)cc1 | inactive: 91% |
| CCOc1ccc(CCNC(=O)C(CC)n2nc(C)c3c(C)n(-c4ccccc4)nc3c2=O)cc1 (centres undefined) | inactive: 73% |
| Cc1cccc(N2CCN(C(=O)c3sc4nc5n(c(=O)c4c3C)CCC5)CC2C)c1 (centres undefined) | inactive: 86% |
| CCCCSCCCNC(=O)C1CCN(Cc2nc(-c3ccc(CC)cc3)oc2C)CC1 | inactive: 51% |
| O=C(CSc1nnc(-c2ccccc2Br)n1-c1ccccc1)c1ccc(F)cc1 | active: 4% |

| Structure (SMILES) | survival |
| --- | --- |
| Cc1nc2ccn(Cc3cccnc3)c(=O)c2cc1C(=O)NCc1ccccc1 | inactive: 68% |
| O=c1[nH]c(SCc2ccccc2)nc2c1CCCC2 | inactive: 84% |
| CC(C)(C)C1CCc2nc(NC(=O)c3cccc(Cl)c3)sc2C1 (centres undefined) | inactive: 51% |
| COC(=O)c1ccc(OCC2c3cc(OC)c(OC)cc3CCN2C(=O)c2ccc(OC)cc2)cc1 (centres undefined) | inactive: 84% |
| O=C(NC1CCCC1)c1ccc(CSc2nc3cccnc3n2Cc2cccc(F)c2)cc1 | inactive: 81% |
| COc1cc(OC)c(NC(=O)Cc2c(C(=O)O)c(C)cn2C)cc1Cl | inactive: 72% |
| COc1ccc(NC(=O)C2=C(C)Nc3ncnn3C2c2sccc2C)cc1 (centres undefined) | inactive: 76% |
| CC(=O)N1CCCC1c1nc2ccccc2n1Cc1c(F)cccc1Cl (centres undefined) | inactive: 81% |
| CC(C)(C)c1ccc(C(=O)NCCN2CCCC2)cc1 | inactive: 94% |
| CCCCn1c(=O)c2oc3ccccc3c2n(CC(=O)Nc2cc(C)ccc2C)c1=O | inactive: 91% |
| Cc1ccc(CNC(=O)Cc2c(C(=O)O)c(C)cn2C)cc1 | inactive: 85% |
| CCc1ccc(OCC(=O)Nc2ccc(S(=O)(=O)Nc3onc(C)c3C)cc2)cc1 | inactive: 88% |
| COc1ccc(OC2CCN(S(=O)(=O)c3cccc(F)c3)CC2)cc1 | inactive: 97% |
| Cc1ccc2oc(=O)n(CCNC(=O)Nc3ccccc3C)c2c1 | inactive: 119% |
| COc1ccc(C)cc1NC(=O)C(NS(=O)(=O)c1cccs1)c1ccccc1 (centres undefined) | inactive: 43% |
| Cc1cccc(C(=O)N2CCNC(=O)C2CC(=O)Nc2ccc(F)cc2)c1 (centres undefined) | inactive: 76% |
| Cc1ccccc1NC(=O)Nc1csc2c1CCCC2 | inactive: 74% |
| COc1ccc(C(=O)CSc2nc3cc(C(=O)NC4CCCC4)ccc3c(=O)n2CC2CCCO2)cc1 (centres undefined) | inactive: 76% |
| CC(C)NC(=O)C(F)(F)F | inactive: 106% |
| CCOc1ccc(CN2C(=O)c3ccccc3Sc3ccc(C(=O)NCc4ccc5c(c4)OCO5)cc32)cc1 | inactive: 89% |
